Source: PubChem BioAssay AID504339 (National Center for Advancing Translational Sciences (NCATS), 2011)
Where “and” joins values, the source holds several entries; their conditions need not be identical. Equal entries are not always repeated. Out of some 390,000 compounds screened, about 17,000 (4.4%) were called active. The shares of active, inactive and inconclusive entries below differ from those in the screen. Calls follow the shape of the dose curve; as a rule, active = well fitted inhibition curve with a large enough effect; inconclusive = small, poorly fitted or top-dose-only effect; inactive = no such curve, though single readings can be large or run the other way. Where the call is inconclusive, the potency comes from a doubtful curve fit.

Each compound was assayed against Lysine-specific demethylase 4A (Homo sapiens) (UniProt O75164) (assay: qHTS Assay for Inhibitors of JMJD2A-Tudor Domain). Conditions: AlphaScreen JMJD2A-Tudor / H3K4me3 peptide binding; activity change, negative = inhibition: at 114 µM (top of the series).
% is scaled to controls: 0 for no effect and ±100 for the full control effect; potency is read from the fitted curve at half-maximal effect; tags tell the direction and shape of the fitted curve.
Also: nearly all actives have a fitted effect of over 50% in size.

Chain of UniProt O75164 (O75164 whole entry, looked up, the tested form may be a part): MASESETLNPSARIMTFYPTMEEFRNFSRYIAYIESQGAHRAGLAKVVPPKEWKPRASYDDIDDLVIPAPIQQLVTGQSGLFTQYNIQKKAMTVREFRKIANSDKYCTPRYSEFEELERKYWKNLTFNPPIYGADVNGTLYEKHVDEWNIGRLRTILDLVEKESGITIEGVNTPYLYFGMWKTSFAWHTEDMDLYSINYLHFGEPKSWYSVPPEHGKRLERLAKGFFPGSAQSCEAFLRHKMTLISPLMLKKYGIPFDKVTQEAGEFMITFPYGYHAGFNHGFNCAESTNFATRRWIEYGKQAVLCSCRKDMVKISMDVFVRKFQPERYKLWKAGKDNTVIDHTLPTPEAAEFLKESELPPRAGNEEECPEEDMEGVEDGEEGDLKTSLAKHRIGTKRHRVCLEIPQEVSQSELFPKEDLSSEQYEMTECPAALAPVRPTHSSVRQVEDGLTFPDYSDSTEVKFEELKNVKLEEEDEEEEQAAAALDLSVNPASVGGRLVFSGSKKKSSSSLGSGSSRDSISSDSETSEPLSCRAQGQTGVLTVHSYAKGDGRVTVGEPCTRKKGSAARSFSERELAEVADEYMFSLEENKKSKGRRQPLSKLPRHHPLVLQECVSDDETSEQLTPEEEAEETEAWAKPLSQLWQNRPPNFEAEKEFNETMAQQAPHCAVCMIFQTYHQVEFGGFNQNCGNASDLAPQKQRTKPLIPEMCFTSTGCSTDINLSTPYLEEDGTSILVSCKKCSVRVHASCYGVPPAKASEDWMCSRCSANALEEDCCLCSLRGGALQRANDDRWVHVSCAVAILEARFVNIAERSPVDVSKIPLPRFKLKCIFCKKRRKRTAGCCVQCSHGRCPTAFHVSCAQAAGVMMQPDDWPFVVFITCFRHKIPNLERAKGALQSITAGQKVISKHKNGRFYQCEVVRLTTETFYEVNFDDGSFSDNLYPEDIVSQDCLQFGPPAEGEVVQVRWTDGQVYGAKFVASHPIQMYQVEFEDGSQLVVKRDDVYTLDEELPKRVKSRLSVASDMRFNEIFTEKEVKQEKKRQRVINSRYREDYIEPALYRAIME

Structure (SMILES)	Potency	activity change, negative = inhibition
Cc1ccc(S(=O)(=O)Nc2ccc3c(c2)CC(=O)N([C@H](C)CO)C[C@@H](C)[C@H](CN(C)S(=O)(=O)c2ccccc2)O3)cc1	inconclusive: 31.6 µM [inhibitor, full curve]	
Cc1ccc(C(C)C)c(OCC(=O)N2CCN(CCc3ccncc3)CC2)c1		inactive: -23.2%
CCOc1cc2[nH]c(=O)n(CCCC(=O)N3CCN(c4cccc(Cl)c4)CC3)c(=O)c2cc1OCC	inconclusive: 79.4 µM [inhibitor, partial curve]	
COc1ccc(Cn2c(O)c(/C=N/NC(=O)c3ccccc3O)c(=O)[nH]c2=O)cc1	active: 70.8 µM	
Cn1c(O)c(C2=NNC(c3ccc(Cl)cc3)C2)c(=O)n(C)c1=O (stereo unspecified)		inactive: -2.76%
COC(=O)[C@@H]1C[C@]2(C(=O)O)c3ccccc3N(OOSc3ccccc3)[C@@H]2N1C(=O)OC		inactive: -6.21%
CN1C(=O)CC(c2ccccc2)Nc2ccccc21 (stereo unspecified)	inconclusive: 79.4 µM [inhibitor, partial curve]	
O=C1NC(=O)N(c2ccccc2)C(=O)/C1=C/c1ccoc1		inactive: -14%
CCOc1cccc(C2NCc3ccccc3-n3cccc32)c1O (stereo unspecified)	inconclusive: 50.1 µM [inhibitor, partial curve]	
CCOC(=O)c1ccc(N2C(=O)c3n[nH]c(-c4cccs4)c3C2c2ccc(Cl)cc2Cl)cc1 (stereo unspecified)	inconclusive: 50.1 µM [inhibitor, partial curve, poor fit]	
COc1cc(C#Cc2c(-c3cncn3C)n(C)c3ccc(-c4cnc(N5CCOCC5)nc4)cc23)cc(OC)c1	inconclusive: 50.1 µM [inhibitor, partial curve]	
O=c1c2ccccc2nc(CSc2ncnc3nc[nH]c23)n1-c1ccccc1	active: 31.6 µM	
Cc1cccc(CN2CCN(c3ccc(Cl)cc3)CC2)c1	active: 22.4 µM	
Cn1c(=O)[nH]c2nncnc2c1=O	inconclusive: 20 µM [inhibitor, single point]	
CC(C)OC(=O)c1c(N)n(Cc2ccco2)c2nc3ccccc3nc12		inactive: 11.9%
O=C1NC(=O)N(c2ccc(Cl)cc2)C(=O)/C1=C/c1coc2ccc(O)cc2c1=O	active: 100 µM	
CN1CCN(c2cc(N3CCCCCC3)c(F)cc2[N+](=O)[O-])CC1	inconclusive: 12.6 µM [inhibitor, full curve]	
CC(=O)Nc1ccccc1C(=O)OCc1cccc(F)c1		inactive: 18.2%
COc1cc(CC2C(=O)N(C)C(=O)N(C)C2=O)ccc1OCc1ccccc1		inactive: -17.2%
COc1cccc(CNCCc2ccc(F)cc2)c1	inconclusive: 89.1 µM [inhibitor, single point]	
CCC1C(c2cc(OC)c(OC)c(OC)c2)c2cc3c(cc2OC1N1CCCC1)OCO3 (stereo unspecified)	inconclusive: 20 µM [inhibitor, full curve]	
O=C1OC(c2ccc([N+](=O)[O-])cc2)=N/C1=C/N1CC2CC(C1)c1cccc(=O)n1C2 (stereo unspecified)		inactive: 1.05%

Structure (SMILES)	Potency	activity change, negative = inhibition
Fc1ccccc1CNCCc1ccc2c(c1)OCO2	active: 70.8 µM	
Cc1ccc(C[n+]2c(-c3ccc(C)cc3)cc(-c3ccc(C)cc3)cc2-c2ccc(C)cc2)cc1	inconclusive: 28.2 µM [inhibitor, partial curve]	
CCC(=O)c1c(O)n(C2CCCCCC2)c(=O)[nH]c1=O	inconclusive: 89.1 µM [inhibitor, single point]	
CCOC(=O)c1c(-n2c(C)cc(/C=C3\C(=O)NC(=O)N(C)C3=O)c2C)sc2c1CCCC2	inconclusive: 50.1 µM [inhibitor, partial curve]	
COc1ccc(OCC(=O)N2CCN(Cc3ccc(SC)cc3)CC2)cc1	active: 20 µM and active: 2.51 µM	
O=C1OC(=O)c2c(Br)c(Br)c(Br)c(Br)c21	inconclusive: 89.1 µM [inhibitor, single point]	
COCc1cc(OC(=O)N(C)C)nc(-c2ccccc2)n1		inactive: 7.94%
Cc1ccc(-n2ncc(C(=O)N3CCN(c4ccc(Cl)cc4)CC3)c2C2CCN(C(=O)OC(C)(C)C)CC2)c(C)c1	inconclusive: 14.1 µM [inhibitor, full curve, poor fit]	
CNc1ccc2oc(C[C@H]3O[C@@]4(CC[C@H]3C)O[C@H]([C@H](C)C(=O)c3ccc[nH]3)[C@H](C)C[C@H]4C)nc2c1C(=O)O	inconclusive: 12.6 µM [inhibitor, full curve, poor fit]	
CN(C)CC/C=C1\c2ccccc2Sc2ccc(Cl)cc21	inconclusive: 56.2 µM [inhibitor, partial curve]	
O=C(c1ccc2c(c1)N(Cc1ccc(F)cc1)C(=O)c1ccccc1S2)N1CCC2(CC1)OCCO2	inconclusive: 79.4 µM [inhibitor, single point]	
COc1ccc(NC(=O)CSc2oc(-c3cccs3)nc2S(=O)(=O)c2ccccc2)c(OC)c1	inconclusive: 50.1 µM [inhibitor, partial curve]	
C=CCN1C(=O)NC(=O)/C(=C/c2ccc(OCC(=O)Nc3ccc(C)cc3)cc2)C1=O	inconclusive: 50.1 µM [inhibitor, partial curve]	
CCCn1c(C(C)C)n[nH]c1=S	inconclusive: 17.8 µM [inhibitor, single point]	
CN(C)c1ccc(NC(=O)Oc2ccccc2)cc1	inconclusive: 56.2 µM [inhibitor, partial curve]	
CC1(C)c2[nH]c3ccccc3c2C[C@H]2C(=O)N(Cc3ccccc3F)C(=O)N21	inconclusive: 31.6 µM [inhibitor, full curve]	
Cc1ccc2c(c1)C1CN(C)CCC1N2C(=O)/C(C#N)=C/c1ccc2c(c1)OCO2 (stereo unspecified)	inconclusive: 79.4 µM [inhibitor, partial curve]	
CCN(CC)c1ccc(N=Cc2c(O)n(-c3cc(OC)ccc3OC)c(=O)[nH]c2=O)cc1	inconclusive: 56.2 µM [inhibitor, partial curve]	
Cc1ccc(-c2n[nH]c(=S)n2-c2ccccc2)cc1	active: 20 µM	
COc1cccc(N2C(=O)NC(=O)/C(=C/c3ccc([N+](=O)[O-])s3)C2=O)c1	active: 22.4 µM	
CCOC(=O)c1c(C)n(Cc2ccc(F)cc2)c2ccc(O)cc12	inconclusive: 56.2 µM [inhibitor, partial curve]	
Cc1ccc2c(c1)C1CN(C)CCC1N2C(=O)c1ccc(Br)o1 (stereo unspecified)		inactive: -8.64%

Structure (SMILES)	Potency	activity change, negative = inhibition
COc1ccc(CN2CCc3nc(N4CCN(c5ccc(F)cc5)CC4)ncc3C2)c(OC)c1OC	inconclusive: 28.2 µM [inhibitor, full curve]	
O=C(COc1ccc(Br)cc1)N1CCN(Cc2ccncc2)CC1	active: 1 µM	
COC(=O)[C@]12OC[C@]34C([C@@H](O)[C@@H]1O)[C@]1(C)CC(=O)C(O)=C(C)[C@@H]1C[C@H]3OC(=O)[C@H](O)[C@@H]24 (stereo partly specified)		inactive: -3.47%
COc1ccc(C(c2nnnn2CC2CCCO2)N2CCN(c3ccccc3)CC2)cc1 (stereo unspecified)	inconclusive: 39.8 µM [inhibitor, full curve, poor fit]	
COC(=O)C1=C(c2ccc(-c3ccccc3)c(F)c2)C[C@@H]2CC[C@H]1N2C(=O)N1CCc2cc(OC)c(OC)cc2C1	inconclusive: 12.6 µM [inhibitor, full curve, poor fit]	
CC/C(=N\NC(=O)c1ccccc1O)c1c(O)n(Cc2ccccc2)c(=O)[nH]c1=O		inactive: -0.735% [at 11.4 µM]
CC1(C)N(O)C2CCCCC2N1O (stereo unspecified)	active: 2.82 µM	
CC1CCN(CC(=O)c2ccccc2Cl)CC1	inconclusive: 89.1 µM [inhibitor, single point]	
Cc1cc(N(C)C)ccc1N=Nc1ccc(N)cc1	active: 20 µM	
O=C(CNC(=O)c1ccc(Cl)cc1)Nc1ccc(Br)cc1C(=O)c1ccccc1	inconclusive: 17.8 µM [inhibitor, partial curve]	
COCCN(CCOC)C(=O)CCn1c(=O)oc2ccccc21	inconclusive: 89.1 µM [inhibitor, partial curve]	
CCN1C(=O)c2ccccc2Sc2ccc(NC(=O)c3ccc(C)c(F)c3)cc21	inconclusive: 89.1 µM [inhibitor, single point]	
CC[n+]1c(/C=C/C=C/c2ccc(N(C)C)cc2)sc2ccccc21	active: 50.1 µM	
Clc1ccccc1CN1CCN(c2ccccc2)CC1	active: 3.55 µM	
BrCC(Br)C1CCC(Br)C(Br)C1 (stereo unspecified)		inactive: 99.3%
COC(=O)C1=C(c2cccc(C#N)c2)C[C@@H]2CC[C@H]1N2C(=O)NCC1CC1		inactive: -7.09%
COc1cccc(-c2nn3c(=O)cc(CN4CCN(C(=O)COc5ccccc5C)CC4)nc3s2)c1		inactive: -0.649%
CCCCOP(=O)(c1ccc(N(C)C)cc1)C(Nc1ccccc1)c1ccccc1 (stereo unspecified)	inconclusive: 25.1 µM [inhibitor, full curve]	
COc1ccccc1CNCCc1ccc(F)cc1	active: 31.6 µM	
CCCCn1c(O)c(C(C)=NCc2ccc3c(c2)OCO3)c(=O)[nH]c1=O	active: 89.1 µM	
c1cc(CNCCc2ccc3c(c2)OCO3)ccn1	active: 8.91 µM	
Cc1cccc(N2C(=O)NC(=O)C3(Cc4cc(C)ccc4N(C)C3)C2=O)c1 (stereo unspecified)		inactive: -3.82% [at 11.4 µM]
